# Laboratory results: the supplement of paper PMC4967469
# IC50 is the fitted dose that halves viability relative to control wells, and lower means more sensitive; a fit beyond the top or the lowest dose is shown as a bound at that dose. AUC is the area under the same curve over the 256-fold range up to the top dose, as a fraction; the more sensitive the line, the further below 1.
# Compound: CC[C@H](Nc1ncnc2[nH]cnc12)c1nc2cccc(F)c2c(=O)n1-c1ccccc1 [CAL-101]
# Assay: Viability of human cancer cell lines after 72 h of drug (GDSC screen)
# Protocol: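 Human cancer cell lines in 384-well plates, medium with 10% serum, drug for 72 h over a 256-fold dose range (nine 2-fold or five 4-fold steps up to the top dose). Adherent lines were fixed and stained with the nucleic acid dye Syto60, suspension lines read with resazurin; signal relative to control wells, capped at 0 and 100%. One two-parameter sigmoid per drug and line, fitted in a mixed model over all curves with the slope shared within a line.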
Cell Line,AUC,IC50
"HCC38 (breast, adherent, top dose 20 µM)",0.953,> 20 µM
"HCC70 (breast, adherent, top dose 20 µM)",0.929,> 20 µM
"HCC202 (breast, adherent, top dose 20 µM)",0.821,18.2 µM
"HCC1143 (breast, adherent, top dose 20 µM)",0.924,> 20 µM
"HCC1187 (breast, suspension, top dose 20 µM)",0.936,> 20 µM
"HCC1395 (breast, adherent, top dose 20 µM)",0.971,> 20 µM
"HCC1419 (breast, adherent, top dose 20 µM)",0.966,> 20 µM
"HCC1428 (breast, adherent, top dose 20 µM)",0.977,> 20 µM
"HCC1500 (breast, adherent, top dose 10.24 µM)",0.988,> 10.2 µM
"HCC1569 (breast, adherent, top dose 20 µM)",0.867,> 20 µM
"HCC1599 (breast, suspension, top dose 20 µM)",0.905,> 20 µM
"HCC1806 (breast, adherent, top dose 20 µM)",0.989,> 20 µM
"HCC1937 (breast, adherent, top dose 20 µM)",0.943,> 20 µM
"HCC1954 (breast, adherent, top dose 20 µM)",0.962,> 20 µM
"HCC2157 (breast, suspension, top dose 20 µM)",0.985,> 20 µM
"HCC2218 (breast, suspension, top dose 20 µM)",0.941,> 20 µM
"HCC2998 (large intestine, adherent, top dose 20 µM)",0.979,> 20 µM
"HCC-15 (lung squamous cell carcinoma, adherent, top dose 20 µM)",0.959,> 20 µM
"HCC-33 (small cell lung carcinoma, adherent, top dose 20 µM)",0.965,> 20 µM
"HCC-44 (lung adenocarcinoma, adherent, top dose 20 µM)",0.972,> 20 µM
"HCC-56 (large intestine, adherent, top dose 20 µM)",0.94,> 20 µM

Cell Line,AUC,IC50
"HCC-78 (lung adenocarcinoma, adherent, top dose 20 µM)",0.872,> 20 µM
"HCC-827 (lung adenocarcinoma, adherent, top dose 20 µM)",0.951,> 20 µM
"HCE-4 (oesophagus, adherent, top dose 20 µM)",0.983,> 20 µM
"HCT-15 (large intestine, adherent, top dose 20 µM)",0.984,> 20 µM
"HD-MY-Z (Hodgkin lymphoma, adherent, top dose 20 µM)",0.929,> 20 µM
"HDLM-2 (Hodgkin lymphoma, suspension, top dose 20 µM)",0.962,> 20 µM
"HDQ-P1 (breast, adherent, top dose 20 µM)",0.974,> 20 µM
"HEC-1 (endometrium, adherent, top dose 20 µM)",0.987,> 20 µM
"HEL (acute myeloid leukaemia, semi-adherent, top dose 20 µM)",0.949,> 20 µM
"HGC-27 (stomach, adherent, top dose 20 µM)",0.962,> 20 µM
"HH (T-cell leukaemia, suspension, top dose 20 µM)",0.495,1.21 µM
"HL-60 (acute myeloid leukaemia, suspension, top dose 20 µM)",0.923,> 20 µM
"HLE (liver, adherent, top dose 20 µM)",0.989,> 20 µM
"HMV-II (melanoma, adherent, top dose 20 µM)",0.962,> 20 µM
"HN (head and neck, adherent, top dose 20 µM)",0.983,> 20 µM
"HO-1-N-1 (head and neck, adherent, top dose 20 µM)",0.972,> 20 µM
"HO-1-u-1 (head and neck, adherent, top dose 20 µM)",0.986,> 20 µM
"HOP-62 (lung adenocarcinoma, adherent, top dose 20 µM)",0.933,> 20 µM
"HOP-92 (large cell lung carcinoma, adherent, top dose 20 µM)",0.98,> 20 µM
"HOS (osteosarcoma, adherent, top dose 20 µM)",0.992,> 20 µM
"HPAC (pancreas, adherent, top dose 20 µM)",0.895,> 20 µM

Cell Line,AUC,IC50
"HPAF-II (pancreas, adherent, top dose 20 µM)",0.887,> 20 µM
"HSC-2 (head and neck, adherent, top dose 20 µM)",0.982,> 20 µM
"HSC-3 (head and neck, adherent, top dose 20 µM)",0.99,> 20 µM
"HSC-4 (head and neck, adherent, top dose 20 µM)",0.975,> 20 µM
"HSC-39 (stomach, suspension, top dose 20 µM)",0.986,> 20 µM
"HT55 (large intestine, adherent, top dose 20 µM)",0.988,> 20 µM
"HT (B-cell lymphoma, suspension, top dose 20 µM)",0.918,> 20 µM
"HT-3 (cervix, adherent, top dose 20 µM)",0.983,> 20 µM
"HT-29 (large intestine, adherent, top dose 20 µM)",0.952,> 20 µM
"HT-115 (large intestine, adherent, top dose 20 µM)",0.991,> 20 µM
"HT-144 (melanoma, adherent, top dose 20 µM)",0.981,> 20 µM
"HT-1080 (fibrosarcoma, adherent, top dose 20 µM)",0.986,> 20 µM
"HT-1197 (bladder, adherent, top dose 20 µM)",0.985,> 20 µM
"HT-1376 (bladder, adherent, top dose 20 µM)",0.981,> 20 µM
"HTC-C3 (thyroid, adherent, top dose 20 µM)",0.911,> 20 µM
"HUTU-80 (digestive system, adherent, top dose 20 µM)",0.934,> 20 µM
"HeLa (cervix, adherent, top dose 20 µM)",0.988,> 20 µM
"Hep 3B2_1-7 (liver, adherent, top dose 20 µM)",0.987,> 20 µM
"Hey (ovary, adherent, top dose 20 µM)",0.977,> 20 µM
"Hs633T (fibrosarcoma, adherent, top dose 20 µM)",0.979,> 20 µM
"Hs683 (glioma, adherent, top dose 20 µM)",0.964,> 20 µM

Cell Line,AUC,IC50
"Hs746T (stomach, adherent, top dose 20 µM)",0.599,2.57 µM
"Hs766T (pancreas, adherent, top dose 20 µM)",0.954,> 20 µM
"Hs939-T (melanoma, adherent, top dose 20 µM)",0.986,> 20 µM
"Hs940-T (melanoma, adherent, top dose 20 µM)",0.946,> 20 µM
"Hs-445 (Hodgkin lymphoma, suspension, top dose 20 µM)",0.863,15.2 µM
"Hs-578-T (breast, adherent, top dose 20 µM)",0.987,> 20 µM
"HuCCT1 (biliary tract, adherent, top dose 20 µM)",0.902,> 20 µM
"HuH-7 (liver, adherent, top dose 20 µM)",0.973,> 20 µM
"HuO9 (osteosarcoma, adherent, top dose 20 µM)",0.887,> 20 µM
"HuO-3N1 (osteosarcoma, adherent, top dose 20 µM)",0.924,> 20 µM
"HuP-T3 (pancreas, adherent, top dose 20 µM)",0.9,> 20 µM
"HuP-T4 (pancreas, adherent, top dose 20 µM)",0.954,> 20 µM
"IA-LM (large cell lung carcinoma, adherent, top dose 20 µM)",0.98,> 20 µM
"IGR-1 (melanoma, adherent, top dose 20 µM)",0.99,> 20 µM
"IHH-4 (thyroid, semi-adherent, top dose 20 µM)",0.992,> 20 µM
"IM-95 (stomach, adherent, top dose 20 µM)",0.904,> 20 µM
"IMR-5 (neuroblastoma, adherent, top dose 20 µM)",0.984,> 20 µM
"IPC-298 (melanoma, adherent, top dose 20 µM)",0.98,> 20 µM
"IST-MEL1 (melanoma, adherent, top dose 20 µM)",0.892,> 20 µM
"IST-MES1 (mesothelioma, adherent, top dose 20 µM)",0.979,> 20 µM
"IST-SL1 (small cell lung carcinoma, semi-adherent, top dose 20 µM)",0.968,> 20 µM
